31 molecules from the supplement of paper PMC11880418 can be followed below.

Structures can show the parent of a compound that is named as a salt. Some of the results follow. The data scatter; read single values as rough.
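Note: High-content imaging of ALDEFLUOR-stained cells with Hoechst-labelled nuclei in 384-well plates, triplicate wells, scored as Z-score against 0.1% DMSO vehicle, negative meaning fewer ALDHbr cells.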

For the experiment, the system named is MKN45. As to the kind of experiment: ALDHbr (CSC) cell proportion score relative to DMSO vehicle (ratio to DMSO); breast (SUM159) / gastric (MKN45) / pancreatic (PANC1) / colon cancer lines; ALDHbr cells have high ALDH activity and are rich in cancer stem cells (CSC); higher = more CSC (ALDHbr) cells remaining. To be noted: 10 µM; 72 h.
Take `CC[C@H]1OC(=O)[C@H](C)[C@@H](O[C@H]2C[C@@](C)(OC)[C@@H](O)[C@H](C)O2)[C@H](C)[C@@H](O[C@@H]2O[C@H](C)C[C@H](N(C)C)[C@H]2O)[C@](C)(OC)C[C@@H](C)C(=O)[C@H](C)[C@@H](O)[C@]1(C)O` [Clarithromycin]: the ALDHbr was 1.04.
On to `CC(=O)N[C@@H](CS)C(=O)O` [Acetylcysteine], for which the ALDHbr turned out to be 1.22.
Under `CO/N=C1\CN(c2nc3c(cc2F)c(=O)c(C(=O)O)cn3C2CC2)CC1CN` (stereo unspecified) [Gemifloxacin mesylate] stands 0.866.
In the case of `Cc1c(O)c(=O)n(-c2ccccc2)n1C` [Antipyrine, 4-hydroxy], the ALDHbr came to 0.921.
On to `O=C1[C@H](CC[C@H](O)c2ccc(F)cc2)[C@@H](c2ccc(O)cc2)N1c1ccc(F)cc1` [Ezetimibe], for which the ALDHbr was 0.942.
Regarding `CC(C)(O/N=C(\C(=O)N[C@@H]1C(=O)N2C(C(=O)[O-])=C(C[n+]3ccccc3)CS[C@H]12)c1csc(N)n1)C(=O)O` [Ceftazidime pentahydrate], the ALDHbr is 1.02.
As for `CN(C(=O)C(Cl)Cl)c1ccc(OC(=O)c2ccco2)cc1` [Diloxanide furoate], the ALDHbr worked out at 0.0483.
For the molecule `CC(C(=O)O)c1cccc(Oc2ccccc2)c1` (stereo unspecified) [Fenoprofen calcium salt dihydrate], the ALDHbr came out at 1.04.
For `CCOC(=O)C1=C(C)NC(C)=C(C(=O)OC)C1c1cccc([N+](=O)[O-])c1` (stereo unspecified) [Nitrendipine], the ALDHbr amounted to 0.951.
`NS(=O)(=O)c1cc(Cl)c(Cl)c(S(N)(=O)=O)c1` [Dichlorphenamide]: the ALDHbr amounted to 0.875.
Take `CO[C@H]1C[C@H](O[C@H]2[C@H](C)[C@@H](O[C@@H]3O[C@H](C)C[C@H](N(C)C)[C@H]3OC(C)=O)[C@@H](C)C[C@@]3(CO3)C(=O)[C@H](C)[C@@H](OC(C)=O)[C@@H](C)[C@@H](C)OC(=O)[C@@H]2C)O[C@@H](C)[C@@H]1OC(C)=O` [Troleandomycin]: the ALDHbr worked out at 0.858.
Consider `CC1Cc2ccccc2N1NC(=O)c1ccc(Cl)c(S(N)(=O)=O)c1` (stereo unspecified) [Indapamide], for which the ALDHbr was 0.922.
Under `CCCN(CCC)C(=O)C(CCC(=O)O)NC(=O)c1ccccc1` (stereo unspecified) [Proglumide] stands 1.41; under `CN[C@H]1CC[C@@H](c2ccc(Cl)c(Cl)c2)c2ccccc21` [Sertraline], 0.817; under `CCCCNc1cc(C(=O)O)cc(S(N)(=O)=O)c1Oc1ccccc1` [Bumetanide], 1.02.
To `CC(COc1ccccc1)N(CCCl)Cc1ccccc1` (stereo unspecified) [Phenoxybenzamine hydrochloride] belongs 0.934.
For the molecule `Cc1c(N(C)CS(=O)(=O)O)c(=O)n(-c2ccccc2)n1C` [Dipyrone], the ALDHbr is 1.08.
Under `COc1ccc2cc(CCC(C)=O)ccc2c1` [Nabumetone] stands 0.984; under `O=C1CC2(CCCC2)CC(=O)N1CCCCN1CCN(c2ncccn2)CC1` [Buspirone hydrochloride], 0.545; under `Cc1c(-c2ccccc2)oc2c(C(=O)OCCN3CCCCC3)cccc2c1=O` [Flavoxate hydrochloride], 1.05.
To `O=C(Oc1cccc2cccnc12)c1ccccc1` [Benzoxiquine] belongs 1.17; to `CNCCC(Oc1ccc(C(F)(F)F)cc1)c1ccccc1` (stereo unspecified) [Fluoxetine hydrochloride], 1.13.
With `C[C@]12C=CC(=O)C=C1CC[C@H]1[C@@H]3C[C@@H](O)[C@](O)(C(=O)CO)[C@@]3(C)C[C@H](O)[C@@]12F` [Triamcinolone], the ALDHbr was 0.991.
Turning to `CC(=O)[C@H]1CC[C@H]2[C@@H]3C=CC4=CC(=O)CC[C@@]4(C)[C@@H]3CC[C@]12C` [Dydrogesterone], the ALDHbr was determined as 0.451.
As to `CC(C)Cc1ccc([C@H](C)C(=O)O)cc1` [S-(+)-ibuprofen], the ALDHbr stood at 1.12.
To `CCCNC(C)C(=O)Nc1c(C)csc1C(=O)OC` (stereo unspecified) [Articaine hydrochloride] belongs 1.13.
As for `CN1CCCC(CC2c3ccccc3Sc3ccccc32)C1` (stereo unspecified) [Metixene hydrochloride], the ALDHbr was 1.1.
To `COc1ccccc1N1CCN(CC(O)COc2cccc3ccccc23)CC1` (stereo unspecified) [Naftopidil dihydrochloride] belongs 1.36; to `CC(=O)N(CC(O)CN(C(C)=O)c1c(I)c(C(=O)NCC(O)CO)c(I)c(C(=O)NCC(O)CO)c1I)c1c(I)c(C(=O)NCC(O)CO)c(I)c(C(=O)NCC(O)CO)c1I` (stereo unspecified) [Iodixanol], 0.934; to `CC(C)NC[C@@H](O)COc1ccc(CC(N)=O)cc1` [(R)-(+)-Atenolol], 0.979.
Turning to `O=C(CCCN1CCN(c2ccccn2)CC1)c1ccc(F)cc1` [Azaperone], the ALDHbr amounted to 1.01.
